Out of some 150,000 compounds screened, about 540 (0.36%) showed an effect of 50% or more. The list shows a part of the results.
What follows are compounds tested on Plasmodium falciparum (assay: Primary screen in NF54 nanoGlo assay, in single point, at 2uM, 72h; a lower Z score goes with more inhibition). Conditions: timepoint 72 hour.
Format: functional, Erythrocyte

Row | Compound | % Inhibition [%] | Z score
1 | COCc1cccc(CNCc2cnc(-c3ccccc3)s2)c1 | -3 | 0.41
2 | C[C@H](NS(=O)(=O)CCNS(=O)(=O)c1ccccc1)c1cccc(Br)c1 | 19 | -1.7
3 | CC(C)[C@H](NC(=O)NCC(F)(F)F)C(=O)N1CCCC1 | -2 | 0.23
4 | Cc1ccc(NC(=O)Nc2cccc(CCc3nc4ccccc4n3C)c2)c(C)c1 | 0 | 0.07
5 | CN1CCC[C@H](NC(=O)c2coc(COc3cccc4cccnc34)n2)C1 | 1 | -0.18
6 | CN(C)C[C@]1(O)CCCN(Cc2nc3c(s2)CCCC3)C1 | -9 | 1.26
7 | COc1cccc(CNC(=O)c2cccc(-n3c(C)nc4cccnc43)c2C)c1 | 4 | -0.6
8 | COc1cc(NC(=O)c2ccccc2)c(OC)cc1NC(=O)NCC1(N2CCOCC2)CCCCC1 | -5 | 0.6
9 | COCCC1CCN(C(=O)CN(C)C(=O)Cc2ccc(F)cc2)CC1 | -6 | 1.17
10 | CC(=O)N1CCC(N[C@H]2CCCc3c2cnn3-c2ccc(C(C)(C)C)cc2)CC1 | 6 | -0.87
11 | COCCN1C(=O)C[C@](CC(=O)N2CCC(Oc3ccccc3OC)CC2)(c2ccccc2F)C1=O | 6 | -0.79
12 | Cc1ccc2c(c1)Oc1ccc(S(=O)(=O)N(C)c3ccccc3C)cc1C(=O)N2 | -22 | 3.11
13 | Cc1cc(C(=O)N[C@H]2CC3(CCCC3)Oc3ccccc32)nc(C)n1 | 0 | 0.01
14 | COCc1nn(CC(=O)NC(C)C)c(=O)n1-c1ccc2c(c1)OCO2 | -4 | 0.69
15 | Cc1cnc(NC(=O)NCC2CCCC(CNC(=O)Nc3ncc(C)s3)C2)s1 (configuration not stated) | 2 | -0.33
16 | COCCNC1=Nc2ncccc2NC12CCN(C(=O)COc1ccccc1C)CC2 | 29 | -3.23
17 | CCOC[C@H]1CCCN1C(=O)Cn1nnnc1N | -3 | 0.44
18 | Cc1c(C(=O)N2CCCC[C@H](N)C2)n(C)c2c(C)cccc12 | -10 | 1.71
19 | CCN(C(=O)c1cccc(-c2ccc3c(c2)OCO3)c1)[C@H]1COC[C@@H]1O | -6 | 0.54
20 | COCCc1noc([C@H](C)NC(=O)Nc2cccc(-c3csc(C)n3)c2)n1 | -8 | 1.48
21 | O=C(c1cscn1)N1CC[C@@]2(CCCN(CC3CCCCC3)C2=O)C1 | -23 | 2.01

Row | Compound | % Inhibition [%] | Z score
22 | CCOc1ccc(C(=O)N2CCC(S(=O)(=O)c3ccc(F)cc3)CC2)cc1OCC | -1 | 0.22
23 | CN1CCC(N2CCC(Oc3cncc(Br)c3)C2)C1=O (configuration not stated) | -16 | 1.76
24 | O=C(Nc1cccc(C#Cc2ccccn2)c1)N[C@H]1CC[C@@H](C(=O)O)C1 | 5 | -0.52
25 | Cn1nc(-c2ccc(C(=O)N3CCCCCC3)cc2)nc1N1CCOCC1 | -3 | 0.33
26 | CCN(CC)CC(=O)NC(=O)Nc1ccccc1 | -1 | 0.2
27 | CCN1CCN(c2cc3c(cc2S(=O)(=O)N2CCC(C)CC2)C(=O)Nc2cc(C)ccc2O3)CC1 | 0 | -0.06
28 | COc1ccc(S(=O)(=O)N2C[C@@H](F)C[C@H]2CNC(C)=O)c2c1CCCC2 | -5 | 0.81
29 | O=C(Nc1ccc2c(c1)OCCCO2)[C@@H]1CCCN1C(=O)c1ccco1 | -7 | 1.06
30 | O=C(NC[C@H]1CCCC1=O)c1cc(F)c[nH]1 | 5 | -0.59
31 | CC(C)(C(=O)N1CCC[C@H](c2nccn2CC(N)=O)C1)c1ccccc1 | -8 | 0.93
32 | COc1ncccc1NC(=O)[C@@H]1COc2ccccc2O1 | 8 | -1.01
33 | Cc1ccc(C(=O)N2CC[C@H]3N(C)S(=O)(=O)CC[C@]3(C(=O)N3CCCC3)C2)s1 | -12 | 1.75
34 | Cc1cc(C)n(CCCNCc2cc3ccc(F)cc3n(CC(C)C)c2=O)n1 | -4 | 0.69
35 | NCc1cc(C(=O)N(CCC2CC2)CC2CC2)ccn1 | -23 | 2.48
36 | COc1ccc2c(c1)Oc1ccccc1N=C2N1CCN(C(=O)c2ccc(Cl)cc2)[C@@H](C)C1 | 0 | 0.02
37 | COc1ccc(CN2C(=O)COC[C@H]2C(=O)Nc2ccccc2F)cc1OC | 0 | 0.05
38 | CCN1C[C@@H](CN(C)C(=O)c2ccc(-c3ccc(C)nc3N)cc2)CC1=O | -9 | 1.24
39 | CC(C)c1nnc([C@@H]2CC3(CN(C(=O)c4cnccn4)C3)CN2C)o1 | -6 | 0.67
40 | O=C(c1nc(-c2ccccc2)nc2c1OCCO2)N1CCCC1 | -2 | 0.38
41 | CCc1nc(CN2C[C@@H]3NC(=O)CN(CCOC)C(=O)CCc4ccc(OC)c(c4)Oc4cccc(c4)CO[C@H]3C2)n[nH]1 | 6 | -0.77

From ChEMBL document CHEMBL4888484, “Replenishing the malaria drug discovery pipeline: Screening and hit evaluation of the MMV Hit Generation Library 1 (HGL1) against asexual blood stage Plasmodium falciparum ,using a nano luciferase reporter read-out” (2022)
